Assay results published in patent US20240076343A1 (CEPHALON, published 2024).

Columns and labels:
[1] = biological target: T1, human PD-1 on Jurkat cells (Jurkat+hPD-1) (human, UniProt Q15116 partial chain); experiment: flow cytometry on Jurkat cells expressing hPD-1
T1 construct: extracellular domain and a portion of the transmembrane domain, stably expressed on Jurkat cells

[2] = biological target: T2, human PD-1 (amino acids 1-185) on transfected Jurkat cells (human, UniProt Q15116 partial chain); experiment: flow cytometry, Jurkat+hPD-1 cells
T2 construct: also called hPD-1; Jurkat+hPD-1 cell line

[3] = biological target: T2, human PD-1 (amino acids 1-185) on …; experiment: flow cytometry on Jurkat cells expressing hPD-1; no competitor
[4] = biological target: T2, human PD-1 (amino acids 1-185) on …; experiment: flow cytometry on Jurkat cells expressing hPD-1; cells pre-incubated with 10 µM anti-hPD-1 #1-mIgG2b-N297A
[5] = biological target: T2, human PD-1 (amino acids 1-185) on …; experiment: flow cytometry on Jurkat cells expressing hPD-1; cells pre-incubated with 10 µM anti-hPD-1 #2-mIgG2b-N297A

Row | Binder | EC50 [1] [nM] | further results
1 | A2-hIgG4-df-hIL-2 (D20A/R38E) (other) heavy: DVQLVESGGGLVQPGGSLRLSCAASGFTFDISAMSWVRQAPGKGLEWVSTISGSAYSTYYADSVKGRFTISRDNSKSTLYLQMNSLRAEDTAVYYCAREIFSDYWGLGTLVTVSSASTKGPSVFPLAPCSRSTSESTAALGCLVKDYFPEPVTVSWNSGALTSGVHTFPAVLQSSGLYSLSSVVTVPSSSLGTKTYTCNVDHKPSNTKVDKRV[not shown - about 350 residues with a human IgG4 Fc and changes] light: QSVLTQPPSASGTPGQRVTISCSGSTSNIGRESVYWYQQLPGTAPKLLIYSNVQRPSGAPNRFSGSKSGTSASLAISGLQSEDEADYYCGTWDDSLNGWVFGGGTKLTVLGQPKAAPSVTLFPPSSEELQANKATLVCLISDFYPGAVTVAWKADSSPVKAGVETTTPSKQSNNKYAASSYLSLTPEQWKSHRSYSCQVTHEGSTVEKTVAPTECS |  | fold increase in EC50 against the anti-hPD-1 antibody without the attenuated hIL-2 moiety [2]: < 2 fold; EC50 (read off the curve) [3]: ~6 nM; EC50 (read off the curve) [4]: ~7 nM; EC50 (read off the curve) [5]: ~10 nM
2 | A2-hIgG4-df-hIL-2 (D20A/R38E) (other, anti-hPD-1 IgG4 with attenuated hIL-2 fused to the heavy chain C-terminus) heavy: DVQLVESGGGLVQPGGSLRLSCAASGFTFDISAMSWVRQAPGKGLEWVSTISGSAYSTYYADSVKGRFTISRDNSKSTLYLQMNSLRAEDTAVYYCAREIFSDYWGLGTLVTVSSASTKGPSVFPLAPCSRSTSESTAALGCLVKDYFPEPVTVSWNSGALTSGVHTFPAVLQSSGLYSLSSVVTVPSSSLGTKTYTCNVDHKPSNTKVDKRV[not shown - about 350 residues with a human IgG4 Fc and changes] light: QSVLTQPPSASGTPGQRVTISCSGSTSNIGRESVYWYQQLPGTAPKLLIYSNVQRPSGAPNRFSGSKSGTSASLAISGLQSEDEADYYCGTWDDSLNGWVFGGGTKLTVLGQPKAAPSVTLFPPSSEELQANKATLVCLISDFYPGAVTVAWKADSSPVKAGVETTTPSKQSNNKYAASSYLSLTPEQWKSHRSYSCQVTHEGSTVEKTVAPTECS | 10.7 | 
3 | D12-hIgG4-df-hIL-2 (D20A/R38E) (other, anti-hPD-1 IgG4 with attenuated hIL-2 fused to the heavy chain C-terminus) heavy: DVQLVESGGGLVQPGGSLRLSCAASGFTFDISAMSWVRQAPGKGLEWVSTISGSAYSTYYADSVKGRFTISRDNSKSTLYLQMNSLRAEDTAVYYCAREIFSDYWGLGTLVTVSSASTKGPSVFPLAPCSRSTSESTAALGCLVKDYFPEPVTVSWNSGALTSGVHTFPAVLQSSGLYSLSSVVTVPSSSLGTKTYTCNVDHKPSNTKVDKRV[not shown - about 350 residues with a human IgG4 Fc] light: QSVLTQPPSASGTPGQRVTISCSGNTSNIGRESVYWYQQLPGTAPKLLIYSNVQRPSGVPDRFSGSKSGTSASLAISGLQSEDEADYYCGTWDDSLNGWVFGGGTKLTVLGQPKAAPSVTLFPPSSEELQANKATLVCLISDFYPGAVTVAWKADSSPVKAGVETTTPSKQSNNKYAASSYLSLTPEQWKSHRSYSCQVTHEGSTVEKTVAPTECS | 17.1 | 

The remaining binders from weak to strong by EC50 [1], led by results:

Row | EC50 [1] [nM] | Binder | further results
4 | 8.87 | OMC.1.D6-hIgG4-L6-hIL-2 (D20A/R38E) (other, anti-hPD-1 IgG4 with attenuated hIL-2 fused to the heavy chain C-terminus) heavy: EVQLLESGGGLVQPGGSLRLSCAASGFTFSDYYMSWVRQAPGKGLEWVSAISSSGGTIFYADSVKGRFIISRDNSKNTLYLQMNSLRAEDTAVYYCAKHKWNDVYYDAMDVWGQGTTVTVSSASTKGPSVFPLAPCSRSTSESTAALGCLVKDYFPEPVTVSWNSGALTSGVHTFPAVLQSSGLYSLSSVVTVPSSSLGTKTYTCNVDHKPSNTKVDKRV[not shown - about 350 residues with a human IgG4 Fc] light: QSVLTQPPSASGTPGQRVTISCSGSNSNIGRNLVNWYQQLPGTAPKLLIYTVDQRPSGVPDRFSGSKSGTSASLAISGLASEDEADYYCAAWDSSLNSWVFGGGTKLTVLGQPKAAPSVTLFPPSSEELQANKATLVCLISDFYPGAVTVAWKADSSPVKAGVETTTPSKQSNNKYAASSYLSLTPEQWKSHRSYSCQVTHEGSTVEKTVAPTECS | 
5 | 7.58 | G12-hIgG4-df-hIL-2 (D20A/R38E) (other, anti-hPD-1 IgG4 with attenuated hIL-2 fused to the heavy chain C-terminus) heavy: DSLVESGGGLVQPGGSLRLSCAASGFTFDISAMSWVRQAPGKGLEWVSTISGSAYSTYYADSVKGRFTISRDNSKSTLYLQMNSLRAEDTAVYYCAREIFSDYWGLGTLVTVSSASTKGPSVFPLAPCSRSTSESTAALGCLVKDYFPEPVTVSWNSGALTSGVHTFPAVLQSSGLYSLSSVVTVPSSSLGTKTYTCNVDHKPSNTKVDKRV[not shown - about 350 residues with a human IgG4 Fc] light: QSVLTQPPSASGTPGQRVTISCSGSTSNIGRESVYWYQQLPGTAPKLLIYLNSQRPSGVPDRFSGSKSGTSASLAISGLQSEDVADYYCGTWDDSLNGWVFGGGTKLTVLGQPKAAPSVTLFPPSSEELQANKATLVCLISDFYPGAVTVAWKADSSPVKAGVETTTPSKQSNNKYAASSYLSLTPEQWKSHRSYSCQVTHEGSTVEKTVAPTECS | 
